Reference: paper PMC9597577, “Mutant Ras and inflammation-driven skin tumorigenesis is suppressed via a JNK-iASPP-AP1 axis” (Cell Reports, 2022)
These are yes or no findings as the source states them, for the method shown. In cells and extracts the contact can be indirect. Some entries that bind do so weakly or less than the wild type. Each block holds one molecule with its values, some of them ahead of it.

Amino acid sequences for entries named in this document (tags omitted).
UniProt P01100: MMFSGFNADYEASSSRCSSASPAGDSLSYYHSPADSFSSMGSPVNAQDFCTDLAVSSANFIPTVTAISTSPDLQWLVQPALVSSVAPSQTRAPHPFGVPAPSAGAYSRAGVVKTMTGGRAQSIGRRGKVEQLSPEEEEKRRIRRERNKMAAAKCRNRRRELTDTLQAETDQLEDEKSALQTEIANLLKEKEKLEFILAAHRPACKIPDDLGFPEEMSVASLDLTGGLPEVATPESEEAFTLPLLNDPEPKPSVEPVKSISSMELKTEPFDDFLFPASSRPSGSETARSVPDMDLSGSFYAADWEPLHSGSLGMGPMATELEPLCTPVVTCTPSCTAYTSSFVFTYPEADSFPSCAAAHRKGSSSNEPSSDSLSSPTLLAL

Assays:
[1] = biological target: T1, iASPP (endogenous, HaCaT) (human (endogenous in HaCaT)) (UniProt Q8WUF5); test: co-IP; lysates of UV-irradiated HaCaT cells (also with DMSO or p38 inhibitor); anti-iASPP LX49.3 or LX128.5, or anti-JunD, with protein G agarose overnight at 4°C; endogenous proteins
T1 sequence: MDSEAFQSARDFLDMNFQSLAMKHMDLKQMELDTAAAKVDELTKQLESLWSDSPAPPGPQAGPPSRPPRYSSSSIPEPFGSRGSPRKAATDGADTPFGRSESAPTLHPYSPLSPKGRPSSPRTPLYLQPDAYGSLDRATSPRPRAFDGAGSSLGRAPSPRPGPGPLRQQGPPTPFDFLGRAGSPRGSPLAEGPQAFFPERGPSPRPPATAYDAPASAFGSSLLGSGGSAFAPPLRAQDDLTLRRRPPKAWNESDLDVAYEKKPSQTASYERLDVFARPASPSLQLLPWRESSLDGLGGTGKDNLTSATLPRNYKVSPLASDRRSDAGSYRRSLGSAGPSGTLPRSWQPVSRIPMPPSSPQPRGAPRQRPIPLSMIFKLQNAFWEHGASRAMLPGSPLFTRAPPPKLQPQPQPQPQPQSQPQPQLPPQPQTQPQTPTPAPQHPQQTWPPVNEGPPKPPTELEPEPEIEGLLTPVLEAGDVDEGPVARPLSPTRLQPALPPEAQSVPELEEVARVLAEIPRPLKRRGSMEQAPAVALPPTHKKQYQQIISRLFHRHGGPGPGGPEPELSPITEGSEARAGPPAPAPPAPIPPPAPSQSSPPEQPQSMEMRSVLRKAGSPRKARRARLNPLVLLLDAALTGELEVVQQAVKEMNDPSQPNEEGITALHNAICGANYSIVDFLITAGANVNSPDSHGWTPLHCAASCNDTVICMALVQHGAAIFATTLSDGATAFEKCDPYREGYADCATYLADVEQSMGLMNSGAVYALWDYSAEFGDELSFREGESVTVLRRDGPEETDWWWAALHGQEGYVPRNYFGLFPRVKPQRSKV

[2] = biological target: T1, iASPP (endogenous, HaCaT) (human (endogenous in HaCaT)); test: co-IP; unfractionated lysates of untreated HaCaT cells (also UV-irradiated cells pre-treated with JNK inhibitor); anti-iASPP LX49.3 or LX128.5, or anti-JunD, with protein G agarose overnight at 4°C; endogenous proteins
[3] = biological target: T2, iASPP (endogenous, immunoprecipitated with LX49.3 or LX128.5) (human (endogenous in HaCaT)) (UniProt Q8WUF5); test: co-IP; IP of endogenous iASPP with anti-iASPP LX49.3 from lysates of control (CTRL) cells, blot for AP1 members; each sign is one experiment (biological replicate)
T2 sequence: T1 sequence

[4] = biological target: T2, iASPP (endogenous, immunoprecipitated with LX49.3 or LX128.5) (human (endogenous in HaCaT)); test: co-IP; IP of endogenous iASPP with anti-iASPP LX49.3 from lysates of UV-irradiated cells, blot for AP1 members; each sign is one experiment (biological replicate)
[5] = biological target: T2, iASPP (endogenous, immunoprecipitated with LX49.3 or LX128.5) (human (endogenous in HaCaT)); test: co-IP; IP of endogenous iASPP with anti-iASPP LX128.5 from lysates of UV-irradiated cells, blot for AP1 members; each sign is one experiment (biological replicate)
[6] = biological target: T2, iASPP (endogenous, immunoprecipitated with LX49.3 or LX128.5) (human (endogenous in HaCaT)); test: co-IP; IP of endogenous iASPP with anti-iASPP LX128.5 from lysates of control (CTRL) cells, blot for AP1 members; each sign is one experiment (biological replicate)
[7] = biological target: T1, iASPP (endogenous, HaCaT) (human (endogenous in HaCaT)); test: co-IP; nuclear fraction lysates from subcellular fractionation of HaCaT and IMOK keratinocytes; anti-iASPP LX128.5 or LX49.3; endogenous proteins
[8] = biological target: T3, iASPP (endogenous, IMOK) (mouse (endogenous in IMOK)) (UniProt Q5I1X5); test: as above
T3 sequence: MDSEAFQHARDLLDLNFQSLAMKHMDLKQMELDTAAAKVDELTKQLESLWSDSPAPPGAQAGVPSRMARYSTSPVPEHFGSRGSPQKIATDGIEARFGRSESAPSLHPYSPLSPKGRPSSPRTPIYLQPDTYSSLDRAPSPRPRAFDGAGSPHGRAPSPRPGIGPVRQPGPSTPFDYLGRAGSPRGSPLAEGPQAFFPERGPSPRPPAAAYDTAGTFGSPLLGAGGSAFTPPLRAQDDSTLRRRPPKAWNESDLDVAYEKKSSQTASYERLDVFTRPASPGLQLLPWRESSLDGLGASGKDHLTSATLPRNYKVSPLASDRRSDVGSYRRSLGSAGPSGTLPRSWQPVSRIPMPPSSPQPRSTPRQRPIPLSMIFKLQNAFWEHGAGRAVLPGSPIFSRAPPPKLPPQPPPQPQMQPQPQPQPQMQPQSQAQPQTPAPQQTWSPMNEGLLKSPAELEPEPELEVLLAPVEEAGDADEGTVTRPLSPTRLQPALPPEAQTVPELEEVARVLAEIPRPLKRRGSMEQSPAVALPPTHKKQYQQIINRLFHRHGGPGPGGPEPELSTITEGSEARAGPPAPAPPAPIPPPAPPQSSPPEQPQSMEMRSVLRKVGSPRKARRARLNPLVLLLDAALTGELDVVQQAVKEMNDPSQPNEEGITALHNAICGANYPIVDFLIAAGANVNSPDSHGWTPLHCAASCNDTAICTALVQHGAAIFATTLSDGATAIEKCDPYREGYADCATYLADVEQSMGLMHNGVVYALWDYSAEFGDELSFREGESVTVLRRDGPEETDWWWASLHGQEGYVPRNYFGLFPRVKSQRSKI

B1: JunB (endogenous, HaCaT) (protein, UniProt P17275 1-347)
chain: MCTKMEQPFYHDDSYTATGYGRAPGGLSLHDYKLLKPSLAVNLADPYRSLKAPGARGPGPEGGGGGSYFSGQGSDTGASLKLASSELERLIVPNSNGVITTTPTPPGQYFYPRGGGSGGGAGGAGGGVTEEQEGFADGFVKALDDLHKMNHVTPPNVSLGATGGPPAGPGGVYAGPEPPPVYTNLSSYSPASASSGGAGAAVGTGSSYPTTTISYLPHAPPFAGGHPAQLGLGRGASTFKEEPQTVPEARSRDATPPVSPINMEDQERIKVERKRLRNRLAATKCRKRKLERIARLEDKVKTLKAENAGLSSTAGLLREQVAQLKQKVMTHVSNGCQLLLGVKGHAF
binding [7]: binds | binding [2]: binds

B2: JunD (endogenous, IMOK) (protein, UniProt P15066 1-341)
chain: METPFYGEEALSGLAAGASSVAGATGAPGGGGFAPPGRAFPGAPPTSSMLKKDALTLSLAEQGAAGLKPGSATAPSALRPDGAPDGLLASPDLGLLKLASPELERLIIQSNGLVTTTPTSTQFLYPKVAASEEQEFAEGFVKALEDLHKQSQLGAATAATSGAPAPPAPADLAATPGATETPVYANLSSFAGGAGPPGGAATVAFAAEPVPFPPPPGALGPPPPPHPPRLAALKDEPQTVPDVPSFGDSPPLSPIDMDTQERIKAERKRLRNRIAASKCRKRKLERISRLEEKVKTLKSQNTELASTASLLREQVAQLKQKVLSHVNSGCQLLPQHQVPAY
binding [8]: binds

B3: JunB (endogenous, IMOK) (protein, UniProt P09450 1-344)
chain: MCTKMEQPFYHDDSYAAAGYGRSPGSLSLHDYKLLKPTLALNLADPYRGLKGPGARGPGPEGSGAGSYFSGQGSDTGASLKLASTELERLIVPNSNGVITTTPTPPGQYFYPRGGGSGGGTGGGVTEEQEGFADGFVKALDDLHKMNHVTPPNVSLGASGGPQAGPGGVYAGPEPPPVYTNLSSYSPASAPSGGSGTAVGTGSSYPTATISYLPHAPPFAGGHPAQLGLSRGASAFKEEPQTVPEARSRDATPPVSPINMEDQERIKVERKRLRNRLAATKCRKRKLERIARLEDKVKTLKAENAGLSSAAGLLREQVAQLKQKVMTHVSNGCQLLLGVKGHAF
binding [8]: binds

Results, then the molecule that gave them:

binding [1]: no binding | binding [2]: no binding
Molecule: c-Fos (endogenous, HaCaT) (from UniProt P01100 1-380)

binding [3]: no binding | binding [4]: no binding | binding [5]: no binding | binding [6]: no binding
Molecule: c-Fos (endogenous) (from UniProt P01100 1-380)
